From patent US20220291215A1 (UNIVERSITY HEALTH NETWORK, published 2022)

Target: T1, recombinant 10x His-tagged CD4 protein (extracellular domain of human CD4, GS linker, 10x histidine tag) (human, UniProt P01730 partial chain)
T1 construct: also called recombinant CD4; sCD4 (analyte)
Test: biolayer interferometry

B1: biotinylated recombinant wild-type DR1 (extracellular domains of DRA1*01:01 and wild-type DRB1*01:01 with leucine zippers) (peptide-MHC)
MHC II alpha: not shown
MHC II beta: GDTRPRFLWQLKFECHFFNGTERVRLLERCIYNQEESVRFDSDVGEYRAVTELGRPDAEYWNSQKDLLEQRRAAVDTYCRHNYGVGESFTVQRRVEPKVTVYPSKTQPLQHHNLLVCSVSGFYPGSIEVRWFRNGQEEKAGVVSTGLIQNGDWTFQTLVMLETVPRSGEVYTCQVEHPSVTSPLTVEWRARSESAQSKGGGGSLEIEAAFLERENTALETRVAELRQRVQRLRNRVSQYRTRYGPLGGGKGSGLNDIFEAQKIEWHE
notes: also called biotinylated HLA-DR1 (ligand)
B1: no binding (tested: 26 µM).
